From ChEMBL document CHEMBL4888484, “Replenishing the malaria drug discovery pipeline: Screening and hit evaluation of the MMV Hit Generation Library 1 (HGL1) against asexual blood stage Plasmodium falciparum ,using a nano luciferase reporter read-out” (2022)
Screen size: about 150,000 compounds; about 540 (0.36%) showed an effect of 50% or more. The list shows a part of the results.

The compounds below were run on Plasmodium falciparum (assay: Primary screen in NF54 nanoGlo assay, in single point, at 2uM, 72h; a lower Z score goes with more inhibition). Conditions: timepoint 72 hour.
Format: functional, Erythrocyte

Compound | % Inhibition [%] | Z score
CCC(CC)CNc1ncc(C(C)(C)C(=O)O)c(N2CCOCC2)n1 | -10 | 1.99
Nc1nc(N2CCOCC2)[nH]c(=O)c1Br | 27 | -3.04
C[C@@H](c1cccnc1)N(C)Cc1cc(C#N)cs1 | 1 | -0.13
CC(C)C(=O)Nc1ccc2nc(N3CCN(CC(=O)N(C)C)CC3)cc(C(=O)O)c2c1 | -25 | 2.95
COc1cc(C)c(NC(=O)NCc2ccc3occc3c2)c(C)c1C | -13 | 2.83
FC(F)(F)CN1CCN(Cc2cc(CN3CCCC3)cs2)CC1 | -10 | 1.88
CCN1C(=O)COc2ccc(NC(=O)N3CCCCC[C@H]3c3ccco3)cc21 | -7 | 1.16
CCCc1nc(Cn2c(C)ncc(-c3nc(C)cs3)c2=O)no1 | 24 | -3.01
O=C(NCc1ccc(F)cc1F)c1nn(-c2ccccc2)c2ccccc2c1=O | -4 | 0.55
Cc1nn(CC(=O)N2C[C@H]3COCC[C@@]3(O)[C@@H]3COCC[C@@H]32)cc1Cl | -5 | 0.48
CC(C)(C)OC(=O)N1CCN(Cc2nnnn2-c2ccccc2)C2(CCCCC2)C1 | 1 | -0.19
Cc1cccc(-c2noc(N3CCOCC3)c2CN(Cc2ccc(F)cc2)C(=O)c2ccccc2F)c1 | 7 | -0.9
COC(=O)c1ccc(NC(=O)N2CCC[C@H](CN3CCC(C)CC3)CC2)cc1 | 6 | -0.93
COc1ccc(NC(=O)Cn2c(C)cc(C)c(-c3nc(-c4ccc5c(c4)OCO5)no3)c2=O)cc1OC | -10 | 1.4
COc1ccc(CCNC(=O)Cn2ccnc2)cc1OC | -9 | 1.66
c1ccn2c(-c3noc([C@H]4CCn5c(cnc5C5CCCCC5)C4)n3)cnc2c1 | -16 | 2.94
C[C@H]1Cc2cc(NC(=O)c3ccc(C(=O)N4CCOCC4)cc3)ccc2O1 | -16 | 2.27
O=C(CC1CCCC1)NC1CCN([C@H]2CCN(CC(F)(F)F)C2)CC1 | 2 | -0.28
CCOc1ccc(C(N)=O)cc1Br | 36 | -5.17
O=C(O)CCn1c(=O)cc(C(F)(F)F)c2cn(C3CCCC3)nc21 | -5 | 0.53
CO[C@@H](C)c1nc(-c2cccc3c2ccn3C)nn1CC(C)(C)O | -13 | 1.62
CCCN(CC1CC1)C(=O)Cc1ccc(S(N)(=O)=O)s1 | -6 | 0.58
Cc1nc2c(c(Oc3ccc(NS(C)(=O)=O)nc3)n1)CCCC2 | -10 | 0.84
O=C(Nc1ccon1)c1ccnc(OCC2CC2)c1 | -16 | 3.1
Cc1ncoc1C(=O)N1CCCCC[C@H]1c1noc(C(C)C)n1 | -5 | 0.63
Cc1ccn(CC(=O)N2CCCCCCC2)c(=O)c1 | -1 | 0.15

Compound | % Inhibition [%] | Z score
CCC[C@H](C)N(C)C(=O)NCc1nnc2n1CCC2 | -15 | 1.28
COc1ccc(/C=C\[C@@]23N(Cc4ccccc4)C(=O)CN2c2ccccc2C3(C)C)cc1 | -7 | 0.88
CN(Cc1ccc(Cl)s1)C(=O)CN(C)C1CC[S+]([O-])CC1 (centres undefined) | -15 | 2.03
COC(=O)CNc1cc(C(=O)OC)cc(F)c1C | -10 | 1.35
CC(C)[C@H]1CN(C)CCN1C(=O)CC1(c2ccccc2Cl)CC(=O)N(CCN(C)C)C1=O (some centres undefined) | 3 | -0.51
COc1ccc(Cl)cc1-c1ncccc1C(=O)N1C[C@@H]2CC[C@H]1C2 | -21 | 2.7
O=C(CCc1ccccc1)Nc1nc(CN2CCc3ccccc3C2)cs1 | 1 | -0.08
CCN1C(=O)CN(C(=O)c2ccn(CC)n2)CC12CCOCC2 | 3 | -0.39
CCn1nc(C)cc1C(=O)OC1([C@H]2CCOC2)CC1 | -14 | 1.45
O=C(N[C@H]1CC(=O)N(c2ccccc2)C1)N1CCN(Cc2ccccc2)CC1 | 11 | -1.35
Cn1ncc(N2CC[C@H](CNC(=O)c3c[nH]nc3-c3cccc(F)c3)C2)cc1=O | 0 | 0.06
Cc1ccnc2nc(C(=O)N3CCCC4(CCCCC4)C3)nn12 | -8 | 1.11
Cc1ccc(Cl)cc1NC(=O)c1ccc2c(c1)nnn2C1CCCC1 | 0 | -0.05
COc1cccc(CN2CCN(S(C)(=O)=O)[C@@H](C)C2)n1 | 0 | -0.06
COC1CN(c2cc(-n3nc(C)c(Br)c3C)ncn2)C1 | -10 | 2.15
CN1CCC(n2nccc2NC(=O)c2cn3ccsc3n2)CC1 | -9 | 1.77
COc1ccc2[nH]c(CNS(=O)(=O)CC3CCCC3)cc2c1 | 8 | -0.73
CCC=C(C)C(=O)N1CCC(C(=O)NCC)CC1 | -7 | 0.95
CC(C)n1c(=O)c2cn(S(=O)(=O)c3ccc(C(C)(C)C)cc3)nc2n(C(C)C)c1=O | -3 | 0.54
COc1ccccc1NC(=O)Cn1c(=O)n(C(C)C)c2ccc(S(=O)(=O)N3CCCC3)cc21 | 1 | -0.18
COc1cccc(OC[C@@H](O)CNC(=O)NCc2nc(C)cc(C)n2)c1 | -1 | 0.2
COc1ccc(S(=O)(=O)c2cn(CC(=O)Nc3ccc(F)cc3)c3nc(C)ccc3c2=O)cc1 | -3 | 0.34
Cc1nc(N(C)C[C@H](O)CO)nc2cc(S(C)(=O)=O)ccc12 | 1 | -0.27
O=C1C2C(Cc3ccc(O)cc3)NC3(C(=O)Nc4c(Cl)cccc43)C2C(=O)N1CC1CCCO1 (centres undefined) | -8 | 1.05
O=C(COc1ccc2ccccc2c1)N1CC(N2C(=O)C3CC=CCC3C2=O)C1 (centres undefined) | -4 | 0.46
CN(Cc1ccccc1)C(=O)C1CCN(C2CCN(C(=O)c3cc(Cl)cc(Cl)c3)CC2)CC1 | 1 | -0.13
